These results are taken from PubChem BioAssay AID360 (National Center for Advancing Translational Sciences (NCATS), 2006).

Screen size: about 48,000 compounds; about 550 (1.1%) were called active. Inconclusive results (about 4%) are left out. No stated cut-off is given here; in the data, active means potency below about 15 µM; inconclusive means mostly about 16 µM to 33 µM; inactive means weaker than that. The list shows a part of the results.
Potency means the concentration at half of the fitted maximal effect.

Sequence of UniProt P04062 (P04062 whole entry, looked up): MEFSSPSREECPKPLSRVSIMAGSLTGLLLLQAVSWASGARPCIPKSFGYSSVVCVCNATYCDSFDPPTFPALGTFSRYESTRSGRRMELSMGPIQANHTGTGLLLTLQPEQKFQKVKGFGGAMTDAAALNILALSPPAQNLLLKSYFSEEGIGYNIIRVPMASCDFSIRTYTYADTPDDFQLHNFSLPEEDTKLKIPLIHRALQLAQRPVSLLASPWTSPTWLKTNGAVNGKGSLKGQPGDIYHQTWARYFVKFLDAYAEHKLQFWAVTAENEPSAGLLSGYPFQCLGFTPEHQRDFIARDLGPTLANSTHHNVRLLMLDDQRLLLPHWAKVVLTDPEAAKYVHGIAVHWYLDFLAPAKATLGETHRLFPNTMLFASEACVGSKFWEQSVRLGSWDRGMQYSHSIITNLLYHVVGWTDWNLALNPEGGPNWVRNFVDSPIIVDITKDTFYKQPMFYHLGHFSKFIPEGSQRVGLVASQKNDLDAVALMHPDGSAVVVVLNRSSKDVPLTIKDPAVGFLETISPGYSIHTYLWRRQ

This experiment concerns the target Lysosomal acid glucosylceramidase (Homo sapiens) (UniProt P04062). Nature of the experiment: Glucocerebrosidase.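 Further: the screen sought inhibitors.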 To be noted: purified enzyme, resorufin glucoside fluorescence (screen aimed at inhibitors), 20 min. An outline of the steps:
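Wild-type enzyme at 0.2 nM final in 50mM citric acid/KH2PO4, 10mM sodium taurocholate, 0.01% tween-20, pH 5.9, with resorufin beta-D-glucopyranoside at 30 uM final. Compounds titrated, 20 min at RT, red fluorescence read; AC50 from titration.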
Regarding `Cc1cc(-n2nc(C)cc2C)n2ncc(-c3ccccc3)c2n1`, the Potency was inactive: > 76.9 µM. Turning to `COc1cccc(C(=O)NCCC2=CCCCC2)c1OC`, the Potency is inactive: > 76.9 µM. For the compound `CCN1CCN(C(=O)c2ccccc2N(C)S(=O)(=O)c2ccc(C)cc2)CC1`, the Potency was inactive: > 76.9 µM. With `CCOC(=O)c1c(C)nc(-c2ccccc2)nc1N` the figure was inactive: > 76.9 µM. With `COc1cc(CC(=O)NCc2ccc3c(c2)OCO3)cc(OC)c1OC` the figure was inactive: > 76.9 µM; with `COc1ccc(OC)c(-n2nnnc2SCC(=O)Nc2ccc(C(=O)N3CCCCC3)cc2)c1`, inactive: > 76.9 µM; with `Cc1ccc(NC(=O)CS(=O)CC(=O)NCCCN(C)c2ccccc2)cc1` (stereo not drawn), inactive: > 76.9 µM. The same measure for `CCN1C(=O)c2cccc3c(NC(=O)c4ccc5c(c4)OCCO5)ccc1c23`: inactive: > 76.9 µM; for `CCOC(=O)c1cccc(NC(=O)CNS(=O)(=O)c2cccs2)c1`: inactive: > 76.9 µM. Consider `Cc1cc(C)n(-c2ccc(C(=O)OCC(=O)c3c(N)n(C)c(=O)n(C)c3=O)cc2)n1`, for which the Potency is inactive: > 76.9 µM. For `CC1CCN(S(=O)(=O)c2ccc(F)c(C(=O)O)c2)CC1`, the Potency is inactive: > 76.9 µM. With `O=C(Nc1cccc(F)c1)c1ccc(S(=O)(=O)NCC2CCCO2)cc1` (stereo not drawn) the figure was inactive: > 76.9 µM; with `COc1cccc(C(c2nnnn2Cc2ccccc2)N2CCN(C(=O)c3ccco3)CC2)c1OC` (stereo not drawn), inactive: > 76.9 µM.

With `COc1ccc(-c2nc(C#N)c(N3CCCCCC3)o2)cc1`, the Potency is inactive: > 76.9 µM. The same measure for `Cc1c(Cl)ccc2c1NC(=O)[C@]21[C@@H]2C(=O)N(Cc3ccccc3)C(=O)[C@@H]2[C@@H]2CCCN21`: “inactive”; for `CC(=O)Nc1ccc(S(=O)(=O)N2CCN(C(=O)Cc3ccccc3)CC2)cc1`: inactive: > 76.9 µM; for `CC(C)NC(=O)c1cc(-c2ccc(Br)cc2)on1`: inactive: > 76.9 µM. With `COC(=O)c1oc2ccc(OC)cc2c1N` the figure was inactive: > 76.9 µM; with `CCOCCCNC(=O)CN1C(=O)CSc2cc(S(=O)(=O)N3CCCCCC3)ccc21`, inactive: > 76.9 µM. With `C=CCOc1cccc(C2C(C(=O)c3ccco3)=C(O)C(=O)N2CCN(CC)CC)c1` (stereo not drawn) the figure was inactive: > 76.9 µM; with `CN(Cc1ccccc1)Cc1nc2c([nH]1)c(=O)[nH]c(=O)n2C`, inactive: > 76.9 µM. As to `CCN1C(=O)c2cccc3c(NC(=O)C(C)(C)C)ccc1c23`, the Potency was inactive: > 76.9 µM.

`Cc1c(NC(=O)COC(=O)Cc2ccc(Cl)cc2)c(=O)n(-c2ccccc2)n1C`: the Potency was inactive: > 76.9 µM. The same measure for `O=S(=O)(NCc1ccccc1)c1ccc2c(c1)OCCO2`: “inactive”; for `Cc1noc(C)c1CSc1nnc2cc(C)c3ccccc3n12`: inactive: > 76.9 µM; for `NC(=O)CSc1nnc(-c2cccnc2)n1CCc1ccccc1`: inactive: > 76.9 µM.

As for `COc1ccc(S(=O)(=O)N2CCC(n3cnc4cc(C(F)(F)F)ccc43)CC2)cc1`, the Potency is inactive: > 76.9 µM. With `OC1(c2ccccc2F)CCN(Cc2nnc(-c3ccccc3)o2)CC1` the figure was inactive: > 76.9 µM; with `CC(=O)C1C(c2cccc(Oc3ccccc3)c2)NC(=O)NC1(O)C(F)(F)F` (stereo not drawn), inactive: > 76.9 µM; with `O=C(Cn1cnc2ccccc2c1=O)OCCCCN1C(=O)c2ccccc2C1=O`, inactive: > 76.9 µM.

As for `CC1CCc2[nH]nc(C(=O)O)c2C1` (stereo not drawn), the Potency is inactive: > 76.9 µM. With `CSc1nnc2n(CCc3ccccc3)c(=O)c3c4c(sc3n12)CCCC4` the figure was inactive: > 76.9 µM; with `Nc1c(C(=O)NCCN2CCOCC2)c2nc3ccccc3nc2n1-c1ccc2c(c1)OCO2`, “inactive”. With `COCc1cc(C)nc(SCC(=O)c2ccc(O)c(O)c2)c1C#N`, the Potency was inactive: > 76.9 µM. The same measure for `CCOc1ccccc1NC(=O)C1CCN(S(=O)(=O)c2c(C)noc2C)CC1`: inactive: > 76.9 µM. The same measure for `CS(=O)(=O)N1CCCC(C(=O)N2CCc3ccccc3C2)C1` (stereo not drawn): inactive: > 76.9 µM; for `CC(C)NS(=O)(=O)c1ccc(OCC(N)=O)c(Cl)c1`: inactive: > 76.9 µM. As to `CCOc1c(S(=O)(=O)N2CCCC2)ccc(Cl)c1Cl`, the Potency is inactive: > 76.9 µM. With `C=CCSC1=C(C#N)C(c2cccc(OC)c2)CC(=O)N1` (stereo not drawn) the figure was inactive: > 76.9 µM; with `COC(=O)c1ccc2c(=O)n(CC3CCCO3)c(SCC(=O)Nc3ccccc3OC)nc2c1` (stereo not drawn), inactive: > 76.9 µM. With `CS(=O)(=O)Nc1ccc(S(=O)(=O)Nc2nccs2)cc1` the figure was inactive: > 76.9 µM. For the compound `O=C1c2ccccc2C(=O)N1CCc1ccccn1`, the Potency is inactive: > 76.9 µM. With `COc1ccc(C(C)(C)C)cc1NC(=O)Nc1ccc2c(c1)OCO2` the figure was inactive: > 76.9 µM; with `COC(=O)c1ccc(CN2C(=O)NC3(CCCc4ccccc43)C2=O)o1` (stereo not drawn), inactive: > 76.9 µM. The same measure for `Nc1nc(SCC(=O)N2CCCc3ccccc32)[nH]c(=O)c1-c1ccccc1`: inactive: > 76.9 µM; for `CCOC(=O)c1[nH]c(C)c(/C(O)=C2\C(=O)C(=O)N(CCN(C)C)C2c2ccco2)c1C` (stereo not drawn): inactive: > 76.9 µM; for `CCn1c(Cc2ccccc2)nnc1SCc1nc2ccccc2c(=O)[nH]1`: inactive: > 76.9 µM. With `CCCCN1C(=O)NC(NC(C)=O)(C(F)(F)F)C1=O` (stereo not drawn) the figure was inactive: > 76.9 µM. Turning to `COc1ccc(C2C3=C(CCCC3=O)Nc3nc4ccccc4n32)cc1OC` (stereo not drawn), the Potency is inactive: > 76.9 µM. The same measure for `Cc1ccc(NC(=O)Cn2cnc3c(cnn3C(C)(C)C)c2=O)cc1`: inactive: > 76.9 µM.

As to `C=C(C)c1cccc(C(C)(C)NC(=O)N2CCN(CC(N)=O)CC2)c1`, the Potency is inactive: > 76.9 µM. With `CC(C)c1cc(NC(=O)C(C)(C)C)cc(C(C)C)c1O` the figure was inactive: > 76.9 µM; with `CCOCC(=O)Nc1nnc(SCCOC)s1`, inactive: > 76.9 µM. With `CCCCOc1ccc(C(C)NC(=O)C2CCCN(S(=O)(=O)CC)C2)cc1` (stereo not drawn) the figure was inactive: > 76.9 µM; with `N#C/C(=C(/O)COC(=O)CCCNC(=O)c1ccc(Cl)cc1)c1nc2ccccc2[nH]1`, inactive: > 76.9 µM; with `COC(=O)c1cc(=O)nc2sc(-c3ccccc3)nn12`, inactive: > 76.9 µM. With `O=C(O)c1ccc(-n2nc(C(F)(F)F)c3c2-c2ccoc2CC3)cc1` the figure was inactive: > 76.9 µM; with `Cc1ccccc1N1OC2C(=O)N(c3ccc(F)cc3)C(=O)C2C1c1ccccn1` (stereo not drawn), inactive: > 76.9 µM; with `O=C(OCc1nnc(-c2ccccc2)o1)C1=COCCO1`, inactive: > 76.9 µM. As to `C/C(N)=C(/C#N)C(=O)COC(=O)c1cc(S(=O)(=O)N2CCCCC2)ccc1C`, the Potency was inactive: > 76.9 µM. With `CCOc1ccc(C2C(C(=O)OC)=C(C)N=C3SCCC(=O)N32)cc1OCC` (stereo not drawn) the figure was inactive: > 76.9 µM.

For the compound `COc1cc(-c2nnc(Cn3cc(C(F)(F)F)ccc3=O)o2)cc(OC)c1OC`, the Potency was inactive: > 76.9 µM. The same measure for `COc1ccc2cc(C#N)c(SCC(=O)N3CCCC3)nc2c1`: inactive: > 76.9 µM; for `Cc1nnsc1C(=O)Nc1ccccc1Cl`: inactive: > 76.9 µM.

For the compound `O=C(c1cc(-c2ccncc2)nc2ccc(Cl)cc12)N1CCN(C(=O)C2CCCO2)CC1` (stereo not drawn), the Potency was inactive: > 76.9 µM. With `Cc1cc(C)nc(-n2nc(C)c3c(=O)[nH]c(C(F)(F)F)nc32)n1` the figure was inactive: > 76.9 µM; with `CC(=O)c1cccc(NC(=O)Nc2ccc(C(=O)N3CCCC3)cc2)c1`, inactive: > 76.9 µM; with `COc1ccccc1C1CC(=O)NC(C)=C1C(=O)OCC1CCCO1` (stereo not drawn), inactive: > 76.9 µM. On to `O=C(CSc1nnc(CNc2ccc(F)cc2)n1Cc1ccccc1)NCc1ccco1`, for which the Potency is inactive: > 76.9 µM. The same measure for `COc1ccc(Cn2nnnc2CN(Cc2cc3ccc(C)cc3[nH]c2=O)C2CCCC2)cc1`: inactive: > 76.9 µM. For the compound `COc1ccc(-c2nn3c(-c4ccco4)nnc3s2)cc1OC`, the Potency was inactive: > 76.9 µM. Take `CCOC(=O)N1CCN(c2cc3[nH]c(=S)[nH]c3cc2F)CC1`: the Potency is inactive: > 76.9 µM. The same measure for `COc1ccc(S(=O)(=O)N(CC(=O)NC2CC2)C2CCCCC2)cc1Cl`: inactive: > 76.9 µM.

Consider `COc1ccc(C(=O)Nc2nc3nc(-c4ccccc4)cc(=O)n3[nH]2)cc1`, for which the Potency is inactive: > 76.9 µM.

As for `COc1cccc(C(=O)N2CCN(Cc3ccccc3C(F)(F)F)CC2)c1`, the Potency was inactive: > 76.9 µM. With `Cc1ccc(S(=O)(=O)N2Cc3ccccc3CC2C(=O)Nn2cnnc2)cc1` (stereo not drawn) the figure was inactive: > 76.9 µM.

Consider `CC1CCCCN1S(=O)(=O)c1ccc2c(c1)CCN2C(=O)CCC(=O)O` (stereo not drawn), for which the Potency was inactive: > 76.9 µM.

Take `COc1cccc(C(=O)Oc2cc(N)n(S(=O)(=O)c3ccc(C)cc3)n2)c1OC`: the Potency was inactive: > 76.9 µM. The same measure for `Cc1nn(C)c(C)c1NC(=O)CSc1nnc(C)n1-c1ccccc1`: inactive: > 76.9 µM; for `Cn1c(=O)c2c(nc(NCc3ccco3)n2C/C=C/c2ccccc2)n(C)c1=O`: inactive: > 76.9 µM; for `COC(=O)COc1ccc(S(=O)(=O)NCC2CCCO2)cc1Cl` (stereo not drawn): inactive: > 76.9 µM. Consider `O=C(Cn1cc(C(=O)C2CC2)c2ccccc21)NCC1CCCO1` (stereo not drawn), for which the Potency is inactive: > 76.9 µM. With `CC(NC(=O)c1ccnc(C(C)(C)C)c1)c1ccccc1` (stereo not drawn) the figure was inactive: > 76.9 µM; with `CC(=O)c1ccc(-c2nc3ccccc3n2C)o1`, inactive: > 76.9 µM. With `CCc1ccc(Nc2ncc3c(n2)CC(c2ccco2)CC3=O)cc1` (stereo not drawn) the figure was inactive: > 76.9 µM. In the case of `Cc1cc(NC(=O)COc2cccc3cccnc23)no1`, the Potency is inactive: > 76.9 µM.

On to `CC(=O)n1c2ccccc2c2nc(NC(C)C)sc21`, for which the Potency is inactive: > 76.9 µM.

For the compound `CCOc1ccccc1NC(=O)C1C2C=CC(O2)C1C(=O)O` (stereo not drawn), the Potency was inactive: > 76.9 µM.
